# From PubChem BioAssay (NCATS)
# Several values for one entry are separate records, joined by “and”; a condition that tells them apart may be missing. Identical values can stand only once. The shares of active, inactive and inconclusive entries below differ from those in the screen. Potencies of inconclusive entries are doubtful fits and often do not repeat. Where a structure was tested more than once in an assay, its records may differ in their call. Activity calls are given as the source filed them. Calls follow the shape of the dose curve; as a rule, active = well fitted curve in the direction sought with a large enough effect; inconclusive = small, poorly fitted or top-dose-only effect, or another doubt; inactive = no such curve, though single readings can be large; an effect the other way counts as inactive or inconclusive.
# How the values were obtained:
# [1] = Viability qHTS for spleen associated tyrosine kinase inhibitor (SYKi) naive MV4-11 cells (AID 1963823); settings: MV4-11 AML viability, CellTiter-Glo luminescence, 72 h; viability (% of control): at 45 µM (top of the series); also: nearly all actives have a fitted effect of over 40% in size
# Method in brief: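 Cells: MV4-11, SYK inhibitor naive, 500 per well. Treatment: library compounds, 72 hr, 37 C, 5% CO2. Read-out: CellTiter-Glo luminescence after 10 min RT.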
# [2] = Viability qHTS for spleen associated tyrosine kinase inhibitor (SYKi) drug resistant MV4-11 cells (AID 1963824); settings: SYKi-resistant MV4-11 viability, CellTiter-Glo, 72 h; series mostly up to 45 µM; also: nearly all actives have a fitted effect of over 35% in size
# Method in brief: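 SYK-inhibitor-resistant MV4-11 AML cells were seeded at 500 per well onto compound and cultured 72 hours (37 °C, 5% CO2). CellTiter-Glo was then added, and after 10 min at room temperature, luminescence gave viability.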
# [3] = Cellular viability qHTS for adrenocortical cancer (ACC) cell line SW-13 (AID 1963989); settings: SW-13 ACC cells viability, CellTiter-Glo, 48 h; activity (max response): stronger effect = lower value; also: nearly all actives have a fitted effect of over 65% in size;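 as to activity (max response): cells grown in serum-free medium with ITS supplement; % is scaled to controls: 0 for no effect and ±100 for the full control effect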
# Method in brief: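 48 h treatment, SW-13 in ITS/DMEM serum-free; doses up to 46 uM; readout CellTiter-Glo luminescence; curve fit four-parameter logistic.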
# [4] = Quantitative highthroughput screen to assess conditional lethalithy of SEM cells grown in RPMI1640 with dialyzed fetal bovine serum (RPMI+ds) (AID 1963884); settings: SEM B-ALL cells, RPMI+dialyzed FBS, CellTiter-Glo viability, 48 h; viability: at 45.8 µM (top of the series); also: nearly all actives have a fitted effect of over 35% in size;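 as to Viability: 100% = DMSO control wells and 0% = empty wells without cells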
# Method in brief: (§1)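 Each medium arm—HPLM with 10% dialyzed FBS, or RPMI1640 with 5 mM glucose and 10% untreated or dialyzed FBS—was screened against an 11-point, 3-fold compound titration for 48 h at 37 °C, with CellTiter-Glo luminescence as endpoint.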
# [5] = Quantitative highthroughput screen to assess conditional lethalithy of SEM cells grown in RPMI1640 with unreated serum (RPMI+s) (AID 1963883); settings: SEM B-ALL cells, CellTiter-Glo viability, 48 h; viability: at 45.8 µM (top of the series); also: nearly all actives have a fitted effect of over 35% in size;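 as to Viability: 100% = DMSO wells and 0% = empty wells without cells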
# Method in brief: as §1
# [6] = Quantitative highthroughput screen to assess conditional lethalithy of SEM cells grown in Human Plasma-Like Medium with dialyzed fetal bovine serum (HPLM+ds) (AID 1963882); settings: SEM B-ALL cells in HPLM+ds, CellTiter-Glo viability, 48 h; series mostly up to 45.8 µM; also: nearly all actives have a fitted effect of over 35% in size
# Method in brief: as §1
# [7] = Cellular viability qHTS for adrenocortical cancer (ACC) cell line NCI-H295R (AID 1963990); settings: CellTiter-Glo ATP luminescence, 48 h; activity change, negative = viability loss: at 46.1 µM (top of the series); also: nearly all actives have a fitted effect of over 60% in size;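 as to activity change, negative = viability loss: 0% = DMSO only wells and -100% = full killing with cytotoxic reference compound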
# Method in brief: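 Compound titrations (up to 46 uM final) are applied to NCI-H295R cultures for 48 h at 37C. Viable cell number is estimated by CellTiter-Glo signal, normalised to DMSO and doxorubicin controls.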
# Potency is read from the fitted curve at half-maximal effect; tags tell the direction and shape of the fitted curve.
structure (smiles),measurement,setting,value
CC(=O)OC[C@H]1O[C@@H](OC(C)=O)[C@H](OC(C)=O)[C@@H]1OC(C)=O,Potency,[1],"inconclusive: 0.0944 µM [rising, full curve, poor fit]"
same,Potency,[2],inactive
same,activity (max response),[3],inactive: 10.4%
COc1ccc(CC2=NN3C([C@@H](CCc4ccccc4)[C@@H](C)O)=NC(C)C3C(=O)N2)cc1OC (stereo partly drawn),Potency,[1],"inconclusive: 16.6 µM [cytotoxic, partial curve]"
same,Potency,[2],"inconclusive: 18.6 µM [cytotoxic, partial curve]"
same,Potency,[4],inactive
CCC[C@H]1C[C@H](C(=O)N[C@@H]([C@@H]2O[C@@H](SC)[C@@H](O)[C@@H](O)[C@@H]2O)[C@H](C)Cl)N(C)C1,Potency,[1],inactive
same,Potency,[2],"inconclusive: 0.0259 µM [cytotoxic, single point]"
same,Potency,[5],inactive
O=C(/C=C/c1ccc2ccc(C(F)(F)F)cc2n1)c1ccncc1,Potency,[1],active: 0.934 µM
same,Potency,[2],active: 0.934 µM
same,Potency,[3],"inconclusive: 4.47 µM [cytotoxic, partial curve, poor fit]"
CC(C)(C)c1cc(C=O)cc(C(C)(C)C)c1O,Potency,[1],inactive
same,Potency,[2],inactive
same,Potency,[3],"inconclusive: 29.1 µM [cytotoxic, single point]"
C=C1C(=O)OC(CCCCCCCC)C1C(=O)O (stereo not drawn),Potency,[1],inactive
same,Potency,[2],inactive
same,Potency,[5],inactive
CC[C@H](c1ccc(O)cc1)[C@@H](CC)c1ccc(O)cc1,Potency,[1],"inconclusive: 29.9 µM [cytotoxic, single point]"
same,Potency,[2],"inconclusive: 29.9 µM [cytotoxic, single point]"
same,Potency,[3],active: 5.17 µM
COc1ccc2cccc(CCNC(C)=O)c2c1,Potency,[1],inactive
same,Potency,[2],"inconclusive: 0.531 µM [rising, partial curve, poor fit]"
same,Potency,[6],"inconclusive: 11.8 µM [cytotoxic, single point]"
same,Potency,[5],"inconclusive: 11.8 µM [cytotoxic, single point]"
same,Potency,[4],"inconclusive: 11.8 µM [cytotoxic, single point]"
O=c1n(CCCN2CCN(c3cccc(Cl)c3)CC2)nc2ccccn12,Potency,[1],"inconclusive: 2.11 µM [cytotoxic, partial curve, poor fit]"
same,Potency,[2],"inconclusive: 11.9 µM [cytotoxic, partial curve, poor fit]"
same,Potency,[6],"inconclusive: 0.003 µM [rising, full curve]"
same,Potency,[5],"inconclusive: 0.372 µM [rising, partial curve, poor fit]"
same,Potency,[7],inactive
c1ccc(CNc2nc(N3CCOc4ccccc43)nc3c2CCCC3)cc1,Potency,[1],"inconclusive: 11.6 µM [cytotoxic, partial curve]"
same,Potency,[2],"inconclusive: 18.6 µM [cytotoxic, partial curve]"
same,Potency,[6],inactive
same,Potency,[5],"inconclusive: 14.8 µM [cytotoxic, partial curve, poor fit]"
same,Potency,[3],"inconclusive: 35.5 µM [cytotoxic, single point]"
same,Potency,[7],"inconclusive: 35.5 µM [cytotoxic, single point]"
O=S(=O)(Nc1ccc(-c2cccnc2)c2cccnc12)c1cccc(C(F)(F)F)c1,Potency,[1],active: 6.61 µM
same,Potency,[2],active: 5.25 µM
same,Potency,[3],active: 4.47 µM
OCCOCCN1CCN(C(c2ccccc2)c2ccc(Cl)cc2)CC1 (stereo not drawn),Potency,[1],"inconclusive: 15 µM [cytotoxic, partial curve]"
same,Potency,[2],"inconclusive: 16.8 µM [cytotoxic, partial curve, poor fit]"
same,Potency,[3],"inconclusive: 23.1 µM [cytotoxic, partial curve, poor fit]"
Cn1c(-c2ccccc2C(F)(F)F)nnc1C12CCC(c3noc(C4CC(F)(F)C4)n3)(CC1)CC2,Potency,[1],"inconclusive: 20.9 µM [cytotoxic, partial curve, poor fit]"
same,Potency,[2],"inconclusive: 16.6 µM [cytotoxic, partial curve]"
same,activity (max response),[3],inactive: -6.22%
CCc1cc(C(N)=S)ccn1,Potency,[1],inactive
same,Potency,[2],inactive
same,Potency,[6],"inconclusive: 11.8 µM [cytotoxic, single point]"
same,Potency,[7],inactive
OCCN1CCN(CC/C=C2/c3ccccc3Sc3ccc(C(F)(F)F)cc32)CC1,Potency,[1],active: 21.1 µM
same,Potency,[2],active: 21.1 µM
same,Potency,[3],"inconclusive: 18.4 µM [cytotoxic, single point]"
CC(C)[C@H](N)C(=O)OCCOCn1cnc2c(=O)[nH]c(N)nc21,Potency,[1],"inconclusive: 18.8 µM [rising, single point]"
same,Potency,[2],"inconclusive: 11.8 µM [cytotoxic, single point]"
same,Potency,[5],inactive
Nc1cccc(S(=O)(=O)N2CCCN(S(=O)(=O)c3ccc4c(c3)OCCO4)CC2)c1,Potency,[1],"inconclusive: 29.5 µM [cytotoxic, partial curve, poor fit]"
same,Potency,[2],"inconclusive: 20.9 µM [cytotoxic, partial curve]"
same,Potency,[5],inactive
same,Potency,[4],"inconclusive: 1.87 µM [cytotoxic, full curve, poor fit]"
N[C@@H](Cc1cc(I)c(Oc2cc(I)c(O)c(I)c2)c(I)c1)C(=O)O,Potency,[1],"inconclusive: 0.0904 µM [cytotoxic, full curve, poor fit]"
same,Potency,[2],"inactive and inconclusive: 20.9 µM [cytotoxic, partial curve, poor fit] and active: 1.61 µM"
same,Potency,[6],inactive
same,Potency,[5],inactive
same,Potency,[4],inactive
O=C(Nc1ccc2[nH]nc(-c3ccncc3)c2c1)[C@@H]1CCN(CC(=O)N2CCN(c3ccc(-c4ncccn4)cc3)CC2)C1,Potency,[1],active: 25.9 nM and active: 525 nM
same,Potency,[2],active: 23.1 nM and active: 468 nM
same,Potency,[3],active: 4.47 µM
CCOc1ccc2ccccc2c1C(=O)N[C@@H]1C(=O)N2[C@@H]1SC(C)(C)[C@@H]2C(=O)O,Potency,[1],"inconclusive: 18.8 µM [cytotoxic, single point] and inconclusive: 9.2 µM [cytotoxic, partial curve, poor fit]"
same,Potency,[2],"inconclusive: 23.7 µM [cytotoxic, single point] and inactive"
same,activity (max response),[3],inactive: 2.64%
O=[N+]([O-])c1cn2c(n1)OC[C@@H](OCc1ccc(OC(F)(F)F)cc1)C2,Potency,[1],"inconclusive: 20.9 µM [cytotoxic, partial curve, poor fit]"
same,Potency,[2],"inconclusive: 18.6 µM [cytotoxic, partial curve]"
same,Potency,[5],inactive
same,Potency,[4],inactive
same,Potency,[3],"inconclusive: 28.2 µM [cytotoxic, partial curve, poor fit]"
CN[C@H]1CC[C@@H](c2ccc(Cl)c(Cl)c2)c2ccccc21,Potency,[1],"inconclusive: 1.68 µM [cytotoxic, partial curve, poor fit]"
same,Potency,[2],"inconclusive: 2.37 µM [cytotoxic, partial curve, poor fit] and active: 7.42 µM"
same,Potency,[3],active: 20.6 µM and active: 28.2 µM
Clc1ccc(C(c2ccccc2Cl)C(Cl)Cl)cc1 (stereo not drawn),Potency,[1],"inactive and inconclusive: 37.2 µM [cytotoxic, partial curve, poor fit]"
same,Potency,[2],"inconclusive: 33.5 µM [cytotoxic, single point] and inconclusive: 18.6 µM [cytotoxic, partial curve]"
same,Potency,[6],"inconclusive: 2.64 µM [cytotoxic, partial curve, poor fit]"
same,Potency,[5],"inconclusive: 2.35 µM [cytotoxic, partial curve, poor fit]"
same,Potency,[3],"inconclusive: 23.1 µM [cytotoxic, single point]"
same,Potency,[7],"inconclusive: 35.5 µM [cytotoxic, single point]"
CCO[C@@H]1O[C@H](C(COCc2ccccc2)OCc2ccccc2)[C@H](OCc2ccccc2)[C@H]1O (stereo partly drawn),Potency,[1],active: 15 µM
same,Potency,[2],active: 11.9 µM
same,Potency,[3],"inconclusive: 18.4 µM [cytotoxic, single point]"
CN(C)CCc1c[nH]c2ccc(C[C@H]3COC(=O)N3)cc12,Potency,[1],inactive
same,Potency,[2],inactive
same,Potency,[6],active: 9.35 µM
same,Potency,[7],inactive
CC[N+](CC)(CC(=O)Nc1c(C)cccc1C)Cc1ccccc1,Potency,[1],"inconclusive: 0.0042 µM [cytotoxic, full curve, poor fit]"
same,Potency,[2],inactive
same,activity (max response),[3],inactive: 1.59%
N[C@H]1C(O)O[C@H](CO)[C@@H](O)[C@@H]1O (stereo partly drawn),Potency,[1],inactive
same,Potency,[2],"inconclusive: 0.668 µM [cytotoxic, full curve, poor fit]"
same,activity (max response),[3],inactive: -3.76%
CC(=O)[C@]1(N)Cc2c(O)c3c(c(O)c2[C@@H](O[C@H]2C[C@H](O)[C@H](O)CO2)C1)C(=O)c1ccccc1C3=O,Potency,[1],active: 5.9 µM
same,Potency,[2],active: 4.68 µM
same,activity (max response),[3],inactive: -6.73%
CCN(CCCc1ccccc1)CCCc1ccccc1,Potency,[1],"inconclusive: 18.8 µM [cytotoxic, partial curve, poor fit]"
same,Potency,[2],"inconclusive: 18.8 µM [cytotoxic, single point]"
same,Potency,[3],"inconclusive: 14.6 µM [cytotoxic, partial curve]"
c1ccc2c(c1)CCCC2C1=NCCN1 (stereo not drawn),Potency,[1],"inconclusive: 0.75 µM [cytotoxic, full curve]"
same,Potency,[2],"inconclusive: 1.5 µM [cytotoxic, full curve]"
same,activity (max response),[3],inactive: 5.7%
OC1(c2ccc(Cl)c(C(F)(F)F)c2)CCN(CCCC(c2ccc(F)cc2)c2ccc(F)cc2)CC1,Potency,[1],active: 2.66 µM and active: 3.66 µM
same,Potency,[2],active: 2.99 µM and active: 3.26 µM
same,Potency,[3],active: 4.11 µM
O=C1OC2(CCC(C(=O)Nc3ccn(-c4ccccc4F)n3)CC2)c2cnccc21 (stereo not drawn),Potency,[1],"inconclusive: 1.66 µM [cytotoxic, full curve]"
same,Potency,[2],active: 4.17 µM
same,activity (max response),[3],inactive: -3.21%
